Experimental data from patent US20240059691A1 (KALVISTA PHARMACEUTICALS LIMITED, priority 2020, published 2024).
For part of these data: The name of at least one read-out is uncertain. For part of these data: For at least one compound, name, drawing or mass did not settle the structure.

biological target: Trypsin; experiment: Determination of related protease inhibition: Trypsin (fluorogenic substrate at Km); type: biochemical, human; conditions: 25° C.
Description: Determination of Related Protease Inhibition
In vitro inhibition of related proteases was determined using an ([…] assay based on standard literature methods (see e.g. Shori et al., Biochem. Pharmacol., 1992, 43, 1209; Bouckaert et al., European Journal of Medicinal Chemistry 110 (2016) 181). Human serine protease enzymes Plasma Kallikrein, KLK1, FXa, Plasmin, Thrombin and Trypsin were assayed for enzymatic activity using an appropriate fluorogenic substrate at Km concentration, FXIa at fixed substrate concentration of 100 μM, and various concentrations of the test compound. Protease activity was measured by monitoring the accumulation of liberated fluorescence from the substrate over […]. The linear rate of fluorescence increase per minute was expressed as percentage (%) activity. IC50 values were calculated as the concentration of inhibitor giving 50% inhibition of the uninhibited enzyme activity (100%).

SMILES | IC50 [µM]
CN1CCC(Oc2cc(CNc3ccc4c(N)nccc4c3)ccn2)CC1 [Example 4259, N6-((2-((1-methylpiperidin-4-yl)oxy)pyridin-4-yl)methyl)isoquinoline-1,6-diamine] | 10 to 40

biological target: Human Factor XIIa (Homo sapiens (Human), UniProt P00748); experiment: Determination of FXIIa inhibition (fluorogenic substrate H-DPro-Phe-Arg-AFC, IC50 assay); type: biochemical; conditions: substrate H-DPro-Phe-Arg-AFC at Km, 25° C.; class scale H1-H3 for compounds that did not achieve 50% inhibition
Sequence (P00748 373-615): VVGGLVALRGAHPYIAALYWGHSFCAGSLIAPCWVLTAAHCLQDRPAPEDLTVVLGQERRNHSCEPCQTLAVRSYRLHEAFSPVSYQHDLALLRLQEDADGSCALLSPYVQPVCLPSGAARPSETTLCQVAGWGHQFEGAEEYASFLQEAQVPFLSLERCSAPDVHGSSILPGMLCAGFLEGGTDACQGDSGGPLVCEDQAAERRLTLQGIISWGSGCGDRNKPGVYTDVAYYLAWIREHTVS
Description: Determination of FXIIa Inhibition
In vitro inhibition of Factor XIIa was determined using an IC50 assay based on standard literature methods (see e.g Baeriswyl et al., ACS Chem. Biol., 2015, 10 (8) 1861; Bouckaert et al., European Journal of Medicinal Chemistry 110 (2016) 181). Human Factor XIIa (Enzyme Research Laboratories) was incubated at 25° C. with the fluorogenic substrate H-DPro-Phe-Arg-AFC (Peptide Protein Science) and various concentrations of the test compound. Protease activity was measured by monitoring the accumulation of liberated fluorescence from the substrate over 5 min at 25° C. The linear rate of fluorescence increase per minute was expressed as percentage (%) activity. The Km for the cleavage of the substrate by FXIIa was determined by standard transformation of the Michaelis-Menten equation. The compound inhibitor assays were performed at substrate Km concentration. IC50 values were calculated as the concentration of inhibitor giving 50% inhibition (IC50) of the uninhibited enzyme activity (100%).

SMILES | Human FXIIa IC50 (nM): test compounds that did not achieve 50% inhibition
CN(c1ccc(N2CCn3c(nnc3C(F)(F)F)C2)nc1)c1cc(C#N)cc2[nH]ccc12 [Example 1338, 4-(methyl(6-(3-(trifluoromethyl)-5,6-dihydro-[1,2,4]triazolo[4,3-a]pyrazin-7(8H)-yl)pyridin-3-yl)amino)-1H-indole-6-carbonitrile] | H1 (>20% inhibition @ 40 μM)
CN1CCC(OCc2ccc(CNc3ccc4ccncc4c3)cc2)CC1 [Example 2255, N-(4-(((1-methylpiperidin-4-yl)oxy)methyl)benzyl)isoquinolin-7-amine] | H1 (>20% inhibition @ 40 μM)
Nc1ncc(Cl)c2cc(NCc3ccnc(OCC4CCn5c(C(=O)O)cnc5C4)c3)ccc12 (stereo not drawn) [Example 4453, 7-(((4-(((1-amino-4-chloroisoquinolin-6-yl)amino)methyl)pyridin-2-yl)oxy)methyl)-5,6,7,8-tetrahydroimidazo[1,2-a]pyridine-3-carboxylic acid] | H1 (>20% inhibition @ 40 μM)
CN1CCC(COc2cc(CNc3cccc4[nH]nc(Cl)c34)ccn2)CC1 [Example 4454, 3-chloro-N-((2-((1-methylpiperidin-4-yl)methoxy)pyridin-4-yl)methyl)-1H-indazol-4-amine] | H2 (>20% inhibition @ 100 μM)
Cc1nnc(-c2ccc(NCc3ccnc(OCC4CCN(C)CC4)c3)cc2)o1 [Example 4457, 4-(5-methyl-1,3,4-oxadiazol-2-yl)-N-((2-((1-methylpiperidin-4-yl)methoxy)pyridin-4-yl)methyl)aniline] | H2 (>20% inhibition @ 100 μM)
CN1CCC(COc2cc(CNc3ccc(N(C)C)nn3)ccn2)CC1 [Example 4458, N3,N3-dimethyl-N6-((2-((1-methylpiperidin-4-yl)methoxy)pyridin-4-yl)methyl)pyridazine-3,6-diamine] | H2 (>20% inhibition @ 100 μM)
c1cc(CN2CCCC2)cc(-c2cc(CNc3ccc4cnccc4c3)ccn2)c1 [Example 5443, N-((2-(3-(pyrrolidin-1-ylmethyl)phenyl)pyridin-4-yl)methyl)isoquinolin-6-amine] | H1 (>20% inhibition @ 40 μM)
Nc1nccc2c(NCc3cnc(C4CCn5c(nnc5C(F)(F)F)C4)o3)cccc12 (stereo not drawn) [Example 8458, N5-((2-(3-(trifluoromethyl)-5,6,7,8-tetrahydro-[1,2,4]triazolo[4,3-a]pyridin-7-yl)oxazol-5-yl)methyl)isoquinoline-1,5-diamine] | H1 (>20% inhibition @ 40 μM)
